Source: article PMC5522446, “The N-terminal dimerization is required for TDP-43 splicing activity” (Scientific Reports, 2017)

Molecular target: the molecule itself
Test: SEC; protein at 50 µM; Superdex-200 Increase 10/300 GL; Buffer A (25 mM Tris-HCl, pH 8.0, 150 mM NaCl); room temperature; apparent MW from standard proteins

B1: TDP([…]) (domain or fragment)
chain: not shown
notes: Cloned into pET22b by Nde I/Xho I; this vector would add a C-terminal His6 (surmised); Printed theoretical MW 30.7 kDa; source: E. coli BL21 (DE3), purified (Ni2+-NTA, SEC)
For B1, the “stoichiometry N” value was 2.2.
